# Source: PubChem BioAssay AID485294 (National Center for Advancing Translational Sciences (NCATS), 2010)
# In all, about 370,000 compounds went through this assay and about 150 (0.041%) were called active. This list was built around the results that the source calls inconclusive (neither active nor inactive); the mix of calls is not that of the screen. The call rests on the fitted dose curve; in most records, active means well fitted inhibition curve with a large enough effect; inconclusive means small, poorly fitted or top-dose-only effect; inactive means flat fitted curve, though single readings scatter. No potency is given beside an inconclusive call; the fits are too rough.
# Target: Beta-lactamase (Escherichia coli (strain K12)) (UniProt P00811)
# UniProt P00811, sequence (P00811 whole entry, looked up): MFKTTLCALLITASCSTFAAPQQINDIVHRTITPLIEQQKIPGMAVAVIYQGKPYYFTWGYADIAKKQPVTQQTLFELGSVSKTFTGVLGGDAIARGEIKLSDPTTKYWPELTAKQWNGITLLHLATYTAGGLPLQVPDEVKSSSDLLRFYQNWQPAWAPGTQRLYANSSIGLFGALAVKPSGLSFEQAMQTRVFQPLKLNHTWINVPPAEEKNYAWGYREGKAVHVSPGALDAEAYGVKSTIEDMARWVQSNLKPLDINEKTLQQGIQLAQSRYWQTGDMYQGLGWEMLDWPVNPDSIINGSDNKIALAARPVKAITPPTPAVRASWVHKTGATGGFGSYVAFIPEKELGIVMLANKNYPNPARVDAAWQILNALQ
# Assay: qHTS Inhibitors of AmpC Beta-Lactamase (assay with detergent); further: nearly all actives have a fitted effect of over 25% in size;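 on activity change, negative = inhibition: 0% = no-compound wells and -100% = no-enzyme wells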
# Conditions: AmpC hydrolysis of nitrocefin, absorbance 480 nm, 0.01% Triton; activity change, negative = inhibition: at 114 µM (top of the series)
# Method in brief: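 AmpC (5.3 nM in the dispensed reagent) in 20 mM phosphate pH 7.0 with 0.01% (detergent screen) or 0.0001% Triton X-100 was preincubated with compounds for 15 min at room temperature. Nitrocefin was then added from an 800 uM solution, and hydrolysis was followed at 480 nm.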
# Potency means the concentration at half of the fitted maximal effect; tags describe the fitted curve by direction and shape.
Structure (SMILES),Potency,"activity change, negative = inhibition"
O=S(=O)(c1ccccc1)c1nc(-c2ccc(Cl)cc2)oc1NCCCN1CCOCC1,"inconclusive [inhibitor, full curve, poor fit]",–
O=C(COC(=O)c1cc(Cl)ccc1O)NNC(=O)c1ccc([N+](=O)[O-])cc1,"inconclusive [inhibitor, partial curve, poor fit]",–
COc1ccc(-c2noc(N3CCC(C(=O)Nc4ccc(OC)c(OC)c4)CC3)n2)cc1,"inconclusive [inhibitor, partial curve, poor fit]",–
COc1c(O)c(O)c2oc(-c3ccccc3)cc(=O)c2c1OC,–,inactive: 5.87%
Cc1ccc(/C=N/Nc2nnc(Cl)c3ccccc23)cc1,"inconclusive [inhibitor, full curve, poor fit]",–
Cc1ccc(C)c(NC(=O)c2ccccc2Sc2ccc([N+](=O)[O-])cc2Cl)c1,"inconclusive [inhibitor, full curve, poor fit]",–
COc1ccc(CNC(=O)CCCn2c(=O)c3cccn3c3ccc(F)cc32)cc1OC,–,inactive: 6.93%
O=C(Nc1ccccc1)C1(c2ccccc2)CC1(Cl)Cl (centres undefined),"inconclusive [inhibitor, partial curve]",–
O=C(COC(=O)c1cc(=O)c2ccccc2o1)Nc1c(F)c(F)c(F)c(F)c1F,"inconclusive [inhibitor, full curve, poor fit]",–
CCOC(=O)c1ccccc1NC(=O)c1ccc(F)cc1,"inconclusive [inhibitor, partial curve]",–
CCN1C(=O)c2ccccc2Sc2ccc(C(=O)NCCN3CCOCC3)cc21,"inconclusive [inhibitor, single point]",–
COc1ccc(NC(=O)CN2C(=O)CSc3ccc(S(=O)(=O)N(C)C)cc32)cc1Cl,–,inactive: 2.15%
CC(=O)Nc1nc(C)c(-c2csc(Nc3ccc(O)cc3)n2)s1,–,inactive: -2.79%
CCSc1nnc(-c2cccs2)o1,"inconclusive [inhibitor, partial curve]",–
CC(C)(C)NC(=O)NC(=O)CSc1ccc(S(=O)(=O)N2CCOCC2)cn1,"inconclusive [inhibitor, single point]",–
O=C1CC(N(O)C2CC(=O)N(Cc3ccccc3)C2=O)C(=O)N1Cc1ccccc1 (centres undefined),–,inactive: -13.2%
[O-]c1n[n+](-c2ccc(Cl)cc2)cc2ccccc12,"inconclusive [inhibitor, full curve, poor fit]",–
O=c1[nH]c2ccccc2o1,"inconclusive [inhibitor, full curve, poor fit]",–
C=CCn1c(SCC(N)=O)nnc1-c1cccc(Br)c1,"inconclusive [inhibitor, full curve, poor fit]",–
O=c1cc(CO)oc(CN2CCN(c3ccccc3)CC2)c1O,"inconclusive [inhibitor, full curve, poor fit]",–
CC(C)N1CCC(N2CCN(CC#Cc3ccccc3)CC2CCO)CC1 (centres undefined),–,inactive: -7.09%
CCn1c(=O)cc(SCC(=O)Nc2ccc(OC)c(OC)c2)c2ccccc21,"inconclusive [inhibitor, partial curve, poor fit]",–

Structure (SMILES),Potency,"activity change, negative = inhibition"
Cc1cccc(-n2cc(CN3CCN(c4ccccn4)CC3)c(-c3cccc(F)c3)n2)c1,–,inactive: 15.3%
O=C(CN1CCNCC1)Nc1ccccc1Cl,–,inactive: -3.99%
COc1ccc2nc(NC(=O)CN(c3ccc(C)cc3)S(=O)(=O)c3c(C)nn(C)c3C)sc2c1,"inconclusive [inhibitor, full curve, poor fit]",–
CCOC(=O)/C(C#N)=C/c1cccc(F)c1,"inconclusive [inhibitor, partial curve]",–
CC(C)(C)NC(=O)CN(C(=O)CCC(=O)Nc1nccs1)c1ccc(F)cc1,"inconclusive [inhibitor, full curve, poor fit]",–
O=C(Nc1ccccc1-c1ccccc1)c1ccc(NC(=O)c2ccco2)cc1,"inconclusive [inhibitor, full curve, poor fit]",–
COc1ccc(C(=O)N/N=C(\C)CC(=O)Nc2ccc3ccccc3c2)c(OC)c1,"inconclusive [inhibitor, partial curve, poor fit]",–
Cc1noc(-c2ccccc2OCC(=O)Nc2ccccc2[N+](=O)[O-])n1,–,inactive: 9.56%
Cn1nnc(NC(=S)NC(=O)c2cccc3ccccc23)n1,–,inactive: -3.46%
CC(C)OCCCN1C(=O)c2[nH]nc(-c3ccccc3O)c2C1c1ccccc1F (centres undefined),–,inactive: 15.7%
CC(NS(=O)(=O)c1ccccc1Cl)C1CC2CCC1C2 (centres undefined),–,inactive: 4.5%
CCc1ccccc1NC(=O)c1cc2nc(-c3ccc(Br)cc3)cc(C(F)(F)F)n2n1,–,inactive: 3.99%
O=C(CN(Cc1ccco1)C(=O)c1ccccc1F)Nc1ccccc1C(F)(F)F,"inconclusive [inhibitor, partial curve]",–
O=C(N1CCN(c2cccc(Cl)c2)CC1)C1(c2cccs2)CCOCC1,–,inactive: 0.287%
CC1Cc2ccccc2N1C(=O)CCn1c(=O)oc2ccccc21 (centres undefined),"inconclusive [inhibitor, full curve, poor fit]",–
C(=C\c1ccccc1)/C=N/N1CCN(c2ccccn2)CC1,"inconclusive [inhibitor, full curve, poor fit]",–
CCc1nnc(NC(=O)CSc2nnc(-c3ccc(S(=O)(=O)N4CCCC4)cc3)n2CC)s1,"inconclusive [inhibitor, partial curve]",–
CCN(CC)C(=O)c1oc2ccc(S(=O)(=O)N3CCCCCC3)cc2c1C,–,inactive: -6.18%
Cc1cc(N/N=C/c2ccccc2Br)nc2ccccc12,"inconclusive [inhibitor, single point]",–
Cc1ccc(SCCNC(=O)/C=C/c2cccc([N+](=O)[O-])c2)cc1,"inconclusive [inhibitor, single point]",–
COc1cc2c(cc1OC)[C@@H]1O[C@](c3ccsc3)(C2)Oc2cc(C)n(-c3ccccc3)c(=O)c21,–,inactive: -5.23% [at 22.9 µM]
CSc1nc(C)cc(-n2ccc(=O)[nH]c2=O)n1,"inconclusive [inhibitor, partial curve, poor fit]",–
